{"source": "the antibiotic and cytotoxicity screens of Wong et al. (2023)", "note": "This is one part of the list.", "data": [{"system": "HepG2", "assay": "cytotoxicity call (relative viability < 0.9)", "details": "10 µM", "values": [{"smiles": "Cc1ccc(S(=O)(=O)Nc2ccc3c(c2)C(=O)N([C@H](C)CO)C[C@H](C)[C@H](CN(C)Cc2ccncc2)OCCCC[C@H](C)O3)cc1", "cytotoxicity call": "inactive"}, {"smiles": "COc1ccc(NC(=O)Nc2ccc3c(c2)CC(=O)N([C@@H](C)CO)C[C@@H](C)[C@@H](CN(C)S(=O)(=O)c2cn(C)cn2)O3)cc1", "cytotoxicity call": "inactive"}, {"smiles": "C[C@H](CO)N1C[C@H](C)[C@@H](CN(C)C(=O)Nc2ccccc2)OCCCC[C@H](C)Oc2ccc(NC(=O)Nc3ccc4c(c3)OCO4)cc2C1=O", "cytotoxicity call": "inactive"}, {"smiles": "CC(=O)N1CCS(=O)(=O)[C@@H]2CCN(S(=O)(=O)c3ccccc3C)CC[C@@H]21", "cytotoxicity call": "inactive"}, {"smiles": "O=C(CN1CCOCC1)N[C@H]1CC[C@H](CCNC(=O)Nc2cc(F)ccc2F)O[C@@H]1CO", "cytotoxicity call": "inactive"}, {"smiles": "Nc1ncnc2c1ncn2CCN1CCOCC1", "cytotoxicity call": "inactive"}, {"smiles": "CC(C)NC(=O)Nc1ccc2c(c1)C(=O)N([C@@H](C)CO)C[C@H](C)[C@H](CN(C)S(=O)(=O)c1cn(C)cn1)O2", "cytotoxicity call": "inactive"}, {"smiles": "C[C@@H]1CN([C@@H](C)CO)S(=O)(=O)c2ccc(-c3ccncc3)cc2O[C@H]1CN(C)C(=O)c1ccc2c(c1)OCO2", "cytotoxicity call": "inactive"}, {"smiles": "Cc1ccn2c(=O)c(C(=O)O)cnc2c1", "cytotoxicity call": "inactive"}, {"smiles": "C=CCOC(=O)[C@H]1[C@@H]2C(=O)O[C@@H](c3ccccc3)[C@@H](c3ccccc3)N2[C@@H](c2ccc(OCCOC(=O)[C@H]3C[C@H]4C(=O)NCC(=O)N4[C@H]3c3ccc(O)cc3)cc2)[C@]12C(=O)Nc1ccccc12", "cytotoxicity call": "inactive"}, {"smiles": "C[C@H](CO)N1C[C@H](C)[C@H](CN(C)Cc2ccc(Cl)c(Cl)c2)Oc2ccc(NS(=O)(=O)c3ccc(Cl)cc3)cc2CC1=O", "cytotoxicity call": "active"}, {"smiles": "O=C(C[C@H]1CC[C@H]2[C@@H](COC[C@@H](O)CN2S(=O)(=O)c2cccc(F)c2)O1)NCc1ccc2c(c1)OCO2", "cytotoxicity call": "inactive"}, {"smiles": "C[C@H](CO)N1C[C@H](C)[C@@H](CN(C)CC2CCCCC2)Oc2ccc(NC(=O)CCN3CCOCC3)cc2CC1=O", "cytotoxicity call": "inactive"}, {"smiles": "C[C@@H]1CCCCO[C@@H](CN(C)CC2CCCCC2)[C@H](C)CN([C@H](C)CO)C(=O)c2cc(NC(=O)Nc3ccccc3)ccc2O1", "cytotoxicity call": "active"}, {"smiles": "Cc1ccc(S(=O)(=O)Nc2ccc3c(c2)C(=O)N([C@@H](C)CO)C[C@H](C)[C@H](CN(C)C(=O)c2ccccc2)OCCCC[C@@H](C)O3)cc1", "cytotoxicity call": "inactive"}]}]}
